The results in this text go back to PubChem BioAssay AID488969 (Vanderbilt High Throughput Screening Facility, 2010).

The full ranking holds about 110,000 compounds; the median of “z-score” is about -0.1, and the highest 2% start at about 2. The list shows a part of the results. Calls of active or inactive are those of the source.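 How the source made its calls: active means z-score in the third read window above 3 or below -3; inactive means the rest.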

This experiment addresses Metabotropic glutamate receptor 8 (Rattus norvegicus) (UniProt P70579). Kind of experiment: rat mGluR8 modulators via GIRK flux, primary screen, cell-based, thallium flux, HTS (AID 488969). To be noted: HEK293 rat mGluR8, GIRK (G protein-gated inwardly rectifying potassium channel) thallium flux, FluoZin2; at 10 µM; stronger effect = higher value; submaximal glutamate (EC20) added with thallium.
Sequence of UniProt P70579 (P70579 whole entry, looked up): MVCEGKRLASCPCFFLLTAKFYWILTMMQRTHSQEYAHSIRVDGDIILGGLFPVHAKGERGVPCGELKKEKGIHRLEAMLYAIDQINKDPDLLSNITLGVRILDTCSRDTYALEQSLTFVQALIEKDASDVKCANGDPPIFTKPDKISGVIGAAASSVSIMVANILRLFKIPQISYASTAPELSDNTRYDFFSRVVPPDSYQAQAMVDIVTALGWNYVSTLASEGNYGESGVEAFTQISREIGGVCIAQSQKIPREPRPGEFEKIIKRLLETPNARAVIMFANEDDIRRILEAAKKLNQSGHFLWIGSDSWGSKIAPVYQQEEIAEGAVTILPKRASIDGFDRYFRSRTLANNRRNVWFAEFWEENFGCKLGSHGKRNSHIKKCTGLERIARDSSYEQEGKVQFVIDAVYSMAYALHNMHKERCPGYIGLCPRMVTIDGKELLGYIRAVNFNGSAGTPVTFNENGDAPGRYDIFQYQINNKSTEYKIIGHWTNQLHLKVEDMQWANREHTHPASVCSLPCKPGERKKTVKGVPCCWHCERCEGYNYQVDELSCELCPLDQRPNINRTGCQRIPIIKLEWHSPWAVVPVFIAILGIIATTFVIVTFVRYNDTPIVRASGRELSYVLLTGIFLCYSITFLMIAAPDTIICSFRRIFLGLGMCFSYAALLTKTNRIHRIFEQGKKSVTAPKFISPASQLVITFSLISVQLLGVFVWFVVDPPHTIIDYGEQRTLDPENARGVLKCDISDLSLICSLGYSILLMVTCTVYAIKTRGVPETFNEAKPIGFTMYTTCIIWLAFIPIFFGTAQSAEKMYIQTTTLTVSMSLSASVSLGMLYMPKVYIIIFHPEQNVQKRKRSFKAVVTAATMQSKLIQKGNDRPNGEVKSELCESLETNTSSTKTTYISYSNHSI
Take `C=CCn1c(SCC(N)=O)nnc1-c1cc(Br)ccc1O`: the z-score was 0.451. The result for `Cc1ccc2c(c1)C(c1ccc(N3CCOCC3)cc1)=NNC(c1cccs1)=N2` reads -0.328.

`Cc1c(NC(=O)Cn2[nH]c(=O)c3ccccc3c2=O)c(=O)n(-c2ccccc2)n1C`: the z-score was -0.00413. As for `COC(=O)C1=C(C)N=c2s/c(=C/c3ccoc3)c(=O)n2C1c1ccccc1` (stereo not given), the z-score was -0.423. With `COc1ccccc1-c1nc2cc3ccccc3cc2nc1-c1ccccc1OC` the figure was -0.377; with `Cc1ccc(S(=O)(=O)Nc2nc3ccccc3nc2NCc2ccc3c(c2)OCO3)cc1C`, -0.189. Take `O=C(CNc1cccc2ccccc12)c1ccc([N+](=O)[O-])cc1`: the z-score is -0.486. On to `CCCOc1ccc(N2C(=O)CC(SC(=NC)Nc3ccc(F)cc3)C2=O)cc1` (stereo not given), for which the z-score was -0.0553. In the case of `O=[n+]1cc(-c2ccc(F)cc2)n([O-])c2c1CCC2`, the z-score was -0.477.

For the molecule `Cc1ccccc1CNC(=O)Nc1cccs1`, the z-score came to 1.93. Turning to `COc1cc(C2C(C#N)=C(N)OC3=C2C(=O)CC(C)(C)C3)ccc1OC(=O)N1CCOCC1` (stereo not given), the z-score was -0.437.

Take `COCc1nc2ccccc2n1Cc1ccccc1`: the z-score was -0.237. On to `CCOC(=O)c1c(NC(=O)C(=O)N/N=C/c2ccccc2O)sc2c1CCCCC2`, for which the z-score is -0.233. `O=S(=O)(NCc1ccccc1)c1cccc2cccnc12`: the z-score was -0.0056. Regarding `O=C(CNC(=S)N(CCCN1CCOCC1)Cc1cccs1)NCCN1CCOCC1`, the z-score was 0.0272. Regarding `CC1CCN(CCCNC(=O)c2ccc3c(=O)n(CCc4ccccc4)c(=O)[nH]c3c2)CC1`, the z-score was active: 4.09. In the case of `Fc1ccc(CSc2ncnc3c2oc2ccccc23)cc1`, the z-score was -0.0202. With `Cc1[nH]n2c(=O)cc(-c3ccc([N+](=O)[O-])cc3)nc2c1-c1ccccc1`, the z-score is -1.93. As for `Cc1ccccc1-c1nc(CN2CCC(C(=O)NCc3cccs3)CC2)c(C)o1`, the z-score is -0.0598. Molecule `O=C(O)CCC(=O)c1c[nH]c2ccccc12` had a z-score of 0.136.

On to `Cc1cc(NC(=O)CSc2nnc3c(C)cc4cc(C)c(C)cc4n23)no1`, for which the z-score is -0.47. With `CCCN(CC1CC1)S(=O)(=O)c1ccc(S(N)(=O)=O)cc1` the figure was -1.64; with `O=C(NCCCO)/C(=C\C=C\c1ccccc1)NC(=O)c1ccccc1Cl`, -0.138; with `O=C(NC(Cc1ccccc1)C(=O)O)/C(=C\c1ccco1)NC(=O)c1ccccc1Br` (stereo not given), 0.347. With `CC(C)CC(NC(=O)C1CCCCC1)C(=O)N1CCN(c2ccccn2)CC1` (stereo not given) the figure was 0.13; with `O=C(N/N=C\c1ccccc1)c1sccc1-n1cccc1`, -0.297; with `Cc1ccc(S(=O)(=O)N2c3ccccc3OCC2c2ccccc2)cc1` (stereo not given), 0.137. `Cc1c(NC(=S)NC(=O)C(C)(C)C)cccc1[N+](=O)[O-]`: the z-score was determined as 0.0334. Regarding `NC(=O)Nn1c(CCC(=O)O)ccc1-c1ccc(F)cc1`, the z-score was -0.128. `CCCCN(CC)CCNC(=O)C1c2cc(OC)c(OC)cc2C(=O)N2CCc3ccccc3C12` (stereo not given) came in with a z-score of 0.236. With `CC(C)C(=O)NC(=S)Nc1ccc(S(=O)(=O)NC(C)(C)C)cc1` the figure was -0.00444. Molecule `CCOC(=O)c1sc2nc3n(c(=O)c2c1C)CCCCC3` gave a z-score of 0.467.

The molecule `Cc1cc(C)c2c3c(sc2n1)C(c1cccc(F)c1)C(C#N)=C(N)O3` (stereo not given) gave a z-score of 0.00825. As to `CN(C)C(CNC(=O)CN1C(=O)NC2(CCc3ccccc32)C1=O)c1ccco1` (stereo not given), the z-score is -0.314. `CC(C)(C)CC(C)(C)NCC(O)COc1ccc2c(c1)CCC2` (stereo not given): the z-score stood at 1.75.

`N#C/C(=C\c1ccc(OCC(N)=O)cc1)c1ccccc1`: the z-score is -0.12. Consider `CC(C)C(c1nnnn1Cc1ccc(F)cc1)N1CCN(C(=O)c2ccco2)CC1` (stereo not given), for which the z-score was -0.796. In the case of `COc1ccccc1NC(=S)NCCC(c1ccccc1)c1ccccc1`, the z-score is -0.217.

Molecule `Cc1ccc(S(=O)(=O)N2CCC(C(=O)N3CCC(C(=O)NCC4CCCO4)CC3)CC2)cc1` (stereo not given) yielded a z-score of 0.137.

`CC(C)(C)C(=O)Nc1ccc(C(=O)N/N=C/c2ccccc2OC(=O)c2ccccc2)cc1`: the z-score was -0.336. In turn, `COC(=O)c1cccc(NC(=S)NCc2ccc(Cl)cc2)c1` yielded a z-score of 0.53. On to `O=C(CS(=O)CC(=O)N(c1ccccc1)C(C(=O)NC1CCCCC1)c1ccco1)Nc1ccc(F)cc1` (stereo not given), for which the z-score was -0.245. Turning to `CCOc1cc2[nH]c(=O)n(CCCC(=O)NCc3ccc(OC)cc3)c(=O)c2cc1OCC`, the z-score is -0.248. The molecule `O=C(CCN1C(=O)c2ccccc2C1=O)NCc1ccco1` came in with a z-score of 1.41.

Turning to `CCCOc1ccc(Cc2c(Cl)nc(SC)nc2NC)cc1`, the z-score was -0.115. Regarding `FC(F)(F)c1cnc(N2CCC(=NOCc3ccc(Cl)cc3)CC2)c(Cl)c1`, the z-score was -0.348. With `O=C(c1ccc2c(c1)OCO2)N1CCCN(C(=O)c2ccc3c(c2)OCO3)CC1`, the z-score was found to be 0.178.

Take `CCNc1ccc(C(=O)OCC(=O)NCc2ccc(C)cc2)cc1[N+](=O)[O-]`: the z-score is -0.488. With `Cc1ccnc(NC(=O)c2sc3cc(Cl)ccc3c2Cl)c1` the figure was 0.101. `CC1(C)CC(O)C(C)(C)N1O` (stereo not given): the z-score was -0.038. In the case of `Cc1nc2cc(NC(=O)N3c4ccccc4CC3C)ccc2o1` (stereo not given), the z-score was -0.805. As to `CCC(C)c1ccc(NC(=S)NCc2cccnc2)cc1` (stereo not given), the z-score was determined as 1.41. Take `CSc1ccc(-c2nc3cnccn3c2Nc2ccc3c(c2)OCO3)cc1`: the z-score is -1.46. The result for `C/C(=N\Nc1nnc(C)c(=O)[nH]1)C(=O)O` reads -0.127; that for `COc1ccc(OCCOc2ccccc2[N+](=O)[O-])cc1`, -0.217. For `CC(=O)c1nn(-c2cccc(Br)c2)cc1C(=O)c1ccc2ccccc2c1`, the z-score was -0.0633. Turning to `Cc1ccc(C(=O)Nc2nc3c(s2)CCCC3)o1`, the z-score is -0.106. `COc1cccc(CNc2ccc(N3CCC(C)CC3)cc2)c1OC`: the z-score was -0.111. Molecule `Cc1ccccc1OC(C)c1nc(-c2ccccc2)no1` (stereo not given) showed a z-score of 0.517. With `O=C(CSc1nnc(-c2ccncc2)n1-c1ccc(F)cc1)NC(=O)NCc1ccco1` the figure was -0.336.

Take `Cc1c(C#N)c(=O)oc2ccc3ccccc3c12`: the z-score was -0.263.

`O=C(NCc1ccc2c(c1)OCO2)c1ccc(Cl)c(S(=O)(=O)NCc2ccccc2)c1`: the z-score was -0.164. The result for `O=C1C=C(O)CC(c2ccco2)C1` (stereo not given) reads 0.462; that for `Cc1cc(C)c(Cn2c(=O)n(CCCC(=O)NCc3ccco3)c(=O)c3sccc32)c(C)c1`, -0.113. For `CC1=C(C(=O)N2CCOCC2)C(c2ccccc2F)C2=C(CC(C)(C)CC2=O)N1` (stereo not given), the z-score turned out to be 0.296. With `Cc1ccc(C(=O)Nc2sc3c(c2C(=O)NCc2ccco2)CCCC3)cc1`, the z-score was -0.108.

`CC1/C(=C\c2ccc(Cl)cc2)C(=O)C2CC1C2(C)C` (stereo not given) yielded a z-score of 0.159. With `O=C(NCc1cccnc1)C1CCN(C(=O)c2ccc(Cl)cc2Cl)CC1` the figure was -0.0203.

Take `O=C(Nc1ccccn1)N1CCOCC1`: the z-score is -0.17. The molecule `O=C(NC(=Nc1ccccc1)N1CCOCC1)Nc1ccccc1` came in with a z-score of 2.94. The molecule `COc1ccc(S(=O)(=O)N(C)CC(=O)Nc2ccccc2SC)cc1` came in with a z-score of 0.866.

In the case of `C=CCn1c(SCC(=O)NC2CCCCC2)nnc1C1CCCCC1`, the z-score was determined as 0.0781.

As to `CCOC(=O)C(=CNc1ccc(NC2=NCC(C)S2)cc1)C(=O)OCC` (stereo not given), the z-score was -1.23. As to `CCOc1ccccc1Nc1nnc(Cc2ccccc2Cl)c(=O)[nH]1`, the z-score is active: 12.8. Turning to `CCCNC(=O)CC1Sc2ccccc2NC1=O` (stereo not given), the z-score is -0.158. For `COc1ccc(NC(=O)C(NC(=O)c2ccc(=O)[nH]c2)c2ccc(C)cc2)cc1` (stereo not given), the z-score is -0.215. With `CCCc1nc(SCc2ccccc2Cl)n[nH]1` the figure was -0.169. Take `O=c1c2ccccc2c(-c2ccc(Cl)cc2)nn1-c1ccccc1`: the z-score is -0.762. With `CCCCCCCCCc1nc2sc3c(c2c(=O)n1NC(=O)c1ccccc1[N+](=O)[O-])CC(C)(C)OC3`, the z-score is -0.0955. `Cc1cccc(-c2onc3ccc(C4(C)OCCO4)cc23)c1`: the z-score is -0.119.

Regarding `COc1ccc(NS(=O)(=O)c2ccc(NC(=S)NC(=O)C(C)C)cc2)cc1`, the z-score was -0.243.

Molecule `N#Cc1ccc(CSc2ncnc3c2cnn3Cc2ccccc2)cc1` showed a z-score of 0.066. As to `CSc1ncccc1C(=O)OCc1ccccc1F`, the z-score was -0.548. On to `COc1ccc(/C=N\NC(=O)COc2ccc(Cl)cc2Cl)c(C(=O)O)c1OC`, for which the z-score is -0.177. With `O=C(Cn1nnc2c(cnn2-c2ccccc2)c1=O)N1CCN(c2ccccc2F)CC1`, the z-score was -0.639.

`COC(=O)/C=C/C(=O)Nc1cccc(C(F)(F)F)c1`: the z-score was found to be 0.831. The molecule `Cc1c(-c2cccs2)[n+](=O)c2c(n1[O-])CCC2` returned a z-score of 0.00683. For the molecule `Cc1ccc(C(=O)Nc2ccc(N3CCOCC3)nc2)cc1`, the z-score was -0.252. Take `CSc1nc2c(c(=O)n1-c1ccc(F)cc1)SCC2`: the z-score was -0.287. In the case of `CCOC(=O)C1=C(C)NC(=O)C(C#N)C1c1ccco1` (stereo not given), the z-score was -0.308. The result for `Cc1[nH]n(-c2ccccc2)c(=O)c1/C=N/NC(=O)COc1ccccc1[N+](=O)[O-]` reads -0.522.

For `COc1ccccc1NC(=O)c1sc2ncn(Cc3cccc4ccccc34)c(=O)c2c1C`, the z-score is -0.232.

`COc1cc(C(C(=O)NC(C)(C)C)N(C(=O)CNC(=O)c2cccs2)c2ccc(C(C)C)cc2)cc(OC)c1OC` (stereo not given): the z-score is -0.0508. The result for `CCOC(=O)C1CCCN(C/C(O)=C(\C#N)c2nc(-c3ccccc3)cs2)C1` (stereo not given) reads 0.962. Take `Cn1cc(SCC(=O)Nc2ccc3c(c2)OCO3)c2ccccc21`: the z-score was 0.236.

Regarding `COc1ccc2c(CC(=O)N3CCc4ccccc43)coc2c1`, the z-score is -0.061.

Consider `CCC1CCCCN1C(=S)Nc1ccc(OC(F)F)cc1` (stereo not given), for which the z-score was -0.372.

`CCOc1cc(CNc2ncc(-c3ccc(OC)cc3)n2C)ccc1O`: the z-score was -0.622. As to `COCCCNCCCOc1ccc(C)cc1Br`, the z-score was -0.00352. Consider `N/C(=N\OC(=O)CC1CCCCC1)c1ccccc1`, for which the z-score is -0.155.

With `CCCNCc1cc(OCC)c(OCC(N)=O)cc1Br`, the z-score is -0.0317. The result for `Cc1noc(C)c1C(=O)N1CCN(c2ncccn2)CC1` reads 0.134; that for `Cc1ccc(O)c(NC(=S)NC(=O)c2ccc(-c3ccc(Cl)cc3)o2)c1`, 0.233; that for `O=C(OC1CCOC1=O)c1ccc(S(=O)(=O)N2CCCCCC2)cc1` (stereo not given), 0.237. Consider `O=C(OCc1nc2scc(-c3ccccc3)c2c(=O)[nH]1)c1cc(Cl)ccc1[N+](=O)[O-]`, for which the z-score is -0.199. `CCOC(=O)c1sc2ccccc2c1NC(=O)c1coc2ccccc2c1=O`: the z-score is -0.353. The result for `CC1CN(c2nc3ccccc3nc2C(C#N)C(=O)NCc2ccc3c(c2)OCO3)CC(C)O1` (stereo not given) reads -0.699; that for `CCOC(=O)c1c(C)[nH]c(C(=O)COC(=O)c2ccncc2)c1C`, -0.607; that for `CC(C)NC(=O)NC(=O)COC(=O)C1CCCN1C(=O)c1cccs1` (stereo not given), -0.186. As to `COC(=O)c1c(O)c2ccccc2[nH]c1=O`, the z-score came to 0.0922.
